Results published in publication PMC6996395 (FASEB bioAdvances, 2019).
One block for each binder: values may come before it.

Key:
[1] = molecular target: Split-CFTR back half (TMD2-NBD2-C-Term; aa 837-1480) (UniProt P13569 837-1480); assay: proximity ligation
[2] = molecular target: Split-CFTR front half (N-term-TMD1-NBD1; aa 1-634) (UniProt P13569 1-634); assay: proximity ligation

B1: CFTR R-region, wild type ([…]) (domain or fragment)
chain: not shown
CTCF of PLA signal (basal) [1]: 3.41

B2: CFTR R-region R-S686D ([…]) (domain or fragment)
chain: not shown
CTCF of PLA signal (after PKA stimulation) [2]: 6.75
CTCF of PLA signal (after PKC stimulation) [2]: 4.54

Results, then the binder that gave them:

CTCF of PLA signal (after PKA stimulation) [2]: 4.24
CTCF of PLA signal (after PKC + PKA stimulation) [2]: 13
CTCF of PLA signal (after PKC stimulation) [2]: 9.26
CTCF of PLA signal (basal) [2]: 1.45
CTCF of PLA signal (basal) [1]: 11.8
B3: CFTR R-region R-S641A/T682A ([…]) (domain or fragment)
chain: not shown

CTCF of PLA signal (after PKA stimulation) [2]: 6.15
CTCF of PLA signal (after PKC + PKA stimulation) [2]: 3.49
CTCF of PLA signal (basal) [2]: 4.86
CTCF of PLA signal (basal) [1]: 1.56
B4: CFTR R-region R-S686A ([…]) (domain or fragment)
chain: not shown
